Reference: PubChem BioAssay AID652104 (National Center for Advancing Translational Sciences (NCATS), 2013)
The whole screen tested about 410,000 compounds, of which about 7,200 (1.8%) were called active. The shares of active, inactive and inconclusive entries below differ from those in the screen. Calls come from the whole dose curve; as a rule, active = well fitted activation curve with a large enough effect; inconclusive = small, poorly fitted or top-dose-only effect, or another doubt; inactive = no such curve, though single readings can be large or run the other way. No potency is given beside an inconclusive call; the fits are too rough.

test: qHTS of TDP-43 Inhibitors; settings: TDP-43 expressing yeast growth rescue, BacTiter-Glo, 24 h; growth rescue (activation): at 46.1 µM (top of the series) unless noted; note: nearly all actives have a fitted effect of over 50% in size; for growth rescue (activation): % of control where 0% means no effect
How it was run: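 Cell-based yeast growth screen: TDP-43 expression induced in galactose, inoculum OD600=0.02 after raffinose pregrowth to mid-log. Read-out BacTiter-Glo luminescence at 24 hr, 30 deg C; inhibition of toxicity seen as signal increase.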
Potency is the fitted concentration of half-maximal effect; tags give direction and shape of the fitted curve.

Structure (SMILES)	Potency	growth rescue (activation)
O=C1C=C(c2cccc(Cl)c2)C[C@@H](c2ccc(Cl)cc2)C1	inactive	
CCCC(=O)OCCNC(=O)c1cc2ccccc2oc1=O	inactive	
Clc1ccc(-n2c(Cc3ccccc3)nnc2SCc2nc(-c3cccs3)no2)cc1	inconclusive [activator, single point]	
Cc1ccc(OCCCn2c(-c3ccc(Cl)cc3)nc3ccccc3c2=O)c(C)c1	inconclusive [activator, full curve, poor fit]	
Cc1ccc(C(=O)c2cn(Cc3ccccc3)c3nc(C)ccc3c2=O)cc1	active: 11.2 µM	
Cc1nc(N2CCCC2)c2c(C(=O)N3CCN(c4cc(Cl)ccc4C)CC3)c(C)oc2n1	inactive	
COc1ccc(/C=N/NC(=O)C[n+]2ccccc2)c(OC)c1OC	inactive	
O=C(Nc1ccccc1)c1snc2c(=O)[nH]cnc12	inactive	
CCn1c(=O)c(=O)n(CC)c2cc(S(=O)(=O)Nc3ccc(C)cc3)ccc21	inconclusive [activator, partial curve]	
COc1cccc(/C(N)=N/OC(=O)Cc2ccccc2[N+](=O)[O-])c1	inconclusive [activator, single point]	
CCCC(=O)N1CCN(c2nc3ccc(F)cc3s2)CC1	inconclusive [activator, partial curve]	
O=C(COC(=O)c1cccc(Oc2ccccc2)c1)NCc1ccco1	active: 15.8 µM	
COc1ccc(N2C(=O)C(Cl)=C(N(CCO)Cc3ccccc3)C2=O)cc1	inconclusive [activator, partial curve]	
Cc1ccccc1OCC(=O)NS(=O)(=O)c1ccc(Cl)cc1	inconclusive [activator, partial curve]	
Cc1ccc(Cl)cc1N1CCN(S(=O)(=O)c2c(C)nc3scc(C)n3c2=O)CC1	inconclusive [activator, single point]	
CCCN(CC(=O)Nc1cc(Cl)ccc1Cl)C(=O)/C=C/c1cc(OC)ccc1OC	inconclusive [activator, partial curve]	
O=C1c2ccccc2C(=O)N1CCCC(=O)N1CCCc2ccccc21	inconclusive [activator, partial curve]	
Cn1ncc(Cl)c1C(=O)NCc1ccc2c(c1)OCO2	inconclusive [activator, partial curve]	
CC(C)(C)c1ccc(C(=O)Nc2nc3nc(-c4ccccc4)cc(=O)n3[nH]2)cc1	inconclusive [activator, partial curve]	
Cc1cc(=O)oc2cc(OCc3ccc(C(=O)N4CCN(c5ccccc5)CC4)cc3)ccc12	inconclusive [activator, single point]	
Cc1ccccc1Nc1nnc(-c2ccc(C)c(S(=O)(=O)N3CCN(C)CC3)c2)c2ccccc12	inconclusive [activator, full curve, poor fit]	
Cc1cccc(Nc2nc(NCc3ccco3)nc(N3CCOCC3)n2)c1	active: 12.6 µM	
O=C(Cc1csc2ccccc12)NCc1ccc(F)cc1	active: 12.6 µM	
CCc1cc2ccc(C)cc2nc1SCC(=O)Nc1cc(OC)c(OC)cc1C(=O)O	inconclusive [activator, single point]	

Structure (SMILES)	Potency	growth rescue (activation)
Oc1cc(-c2ccccc2)c2ccccc2c1	inconclusive [activator, partial curve]	
CCOC(=O)N1CCN(CC(=O)Nc2c(C(=O)OC)[nH]c3cc(C)ccc23)CC1	inactive	
COc1ccc(C(C(=O)Nc2ccc(C(C)C)cc2)N(C)C(=O)Cc2cccs2)cc1 (stereo unspecified)	inconclusive [activator, single point]	
C=C(C)COc1ccc2c(C)c(CCC(=O)NC3CC3)c(=O)oc2c1	inconclusive [activator, full curve, poor fit]	
Cc1cccc(N2CCN(C(=O)c3cc4c(=O)[nH]c5ccc(C)cc5c4s3)CC2C)c1 (stereo unspecified)	inactive	
O=C(C1CCCCC1)N1C[C@@H](O)[C@H](n2cc(-c3ccc(F)cc3)nn2)C[C@@H]1c1ccc(Cl)cc1	inconclusive [activator, full curve, poor fit]	
COc1ccc(-c2csc(NC(=O)C3CCCCN3S(=O)(=O)c3ccccc3)n2)cc1 (stereo unspecified)	inconclusive [activator, partial curve]	
Nc1c(C(=O)Nc2ccc(Cl)cc2)oc2ccccc12	inconclusive [activator, full curve]	
C=CCOC(=O)C(=O)/C=C/c1csc2ccccc12	inconclusive [activator, full curve]	
NC(=O)c1oc2ccccc2c1NC(=O)c1ccc(F)cc1	inconclusive [activator, full curve, poor fit]	
C#CCOCCOCCOCCNc1nc(N2CCN(C(=O)Cn3cc(CCCN=C(N)N)nn3)CC2)nc(N2CCN(C(=O)[C@H](C(C)C)n3cc(CCO)nn3)CC2)n1	inconclusive [activator, partial curve]	
CC(c1ccccc1)n1c(-c2ccc(Cl)cc2)n[nH]c1=S (stereo unspecified)	inconclusive [activator, single point]	
CC(C)N(Cc1nc(-c2ccc(Cl)cc2)no1)C(=O)CN(C)S(=O)(=O)c1ccc(Cl)cc1	inconclusive [activator, single point]	
CC(=O)c1ccc2oc3ccccc3c(=O)c2c1	inconclusive [activator, full curve]	
COc1ccc(Cl)cc1NC(=S)NCc1cccs1	inconclusive [activator, full curve, poor fit]	
O=C(COC(=O)C12CC3CC(CC(O)(C3)C1)C2)Nc1ccc(OC(F)F)cc1	inactive	
O=c1c(N2CCc3ccccc3C2)csc2ccc(F)cc12	inconclusive [activator, partial curve, poor fit]	
Cc1nc2ccc(NC(=O)Cc3ccccc3F)cc2s1	inconclusive [activator, single point]	
OC(c1ccccc1)(c1nc(-c2ccccc2)cs1)C(F)(F)F (stereo unspecified)		inconclusive: -92% [activator]
CCCOc1ccc(C(=O)NNC(=S)NC(C)=O)cc1	active: 11.2 µM	
CCCCn1c(N)c(C(=S)NC(=O)CC(C)C)c(=O)n(C)c1=O	inconclusive [activator, partial curve]	
COc1nc(-c2ccccc2)c2cc(C)ccc2n1	active: 12.6 µM	
CCOc1ccc(CC(=O)NCCS(=O)(=O)N2CCN(c3ccc(OC)cc3)CC2)cc1	inactive	
Cc1ccc(C)c(OCCC(=O)N2CCN(S(=O)(=O)c3cc(F)ccc3F)CC2)c1	active: 17.8 µM	

Structure (SMILES)	Potency	growth rescue (activation)
COc1ccc(C2Oc3ccccc3N2C(C)=O)cc1 (stereo unspecified)	inconclusive [activator, partial curve]	
CCOc1ccc(OCc2ccc(C(=O)Nc3cccc(C)n3)o2)cc1	inconclusive [activator, single point]	
Cc1nn(-c2ccccc2)c(N)c1Sc1ccc([N+](=O)[O-])cc1	inconclusive [activator, single point]	
Cc1occc1C(=O)Nc1cccc(Cl)c1Cl	active: 11.2 µM	
COCCSc1nnc(NC(=O)C2CCCCC2)s1	inconclusive [activator, partial curve]	
C/C(=N\NC(=S)NCCc1ccccc1)c1ccc(C)cc1	inconclusive [activator, partial curve]	
COc1ccc(S(=O)(=O)N2CCN(C(=O)c3ccco3)CC2)c(C)c1C	active: 22.4 µM	
COc1cccc(NC(=O)Cn2c(=O)n(-c3cccc(OC)c3)c(=O)c3sc4ccccc4c32)c1	inactive	
CCc1cccc(CC)c1NC(=S)NCc1ccc2[nH]c(C)cc2c1	inconclusive [activator, partial curve]	
CC(=O)Nc1ccc(NC(=S)NC(=O)c2ccc([N+](=O)[O-])cc2)cc1	inactive	
CC(=O)Nc1ccc(N=Nc2ccccc2)cc1	active: 10 µM	
CC(=O)Nc1sc2c(c1C#N)CCCCC2	inconclusive [activator, partial curve]	
O=C(CN1CCCCC1)Nc1ccc(NC(=O)c2ccc(Cl)cc2)cc1Cl	inactive	
COc1ccccc1NS(=O)(=O)c1ccc(Br)s1	active: 11.2 µM	
CN(C)S(=O)(=O)N(CC(=O)Nc1ccc(Br)cc1F)c1ccccc1	inconclusive [activator, single point]	
CCCNC(=O)c1cc(SC)ccc1Cl	inconclusive [activator, single point]	
CC1(C(=O)NS(=O)(=O)c2ccc(Br)cc2)CCN1C(=O)CC1CCCCC1 (stereo unspecified)	inactive	
CCCC(=O)NC(=S)Nc1ccccc1F	inconclusive [activator, partial curve]	
COc1ccc(CCNc2ncnc3c2nnn3C)cc1OC	inconclusive [activator, partial curve]	
Fc1ccccc1N1CCN(c2nnc(C(F)(F)F)c3nnn(Cc4ccccc4)c23)CC1	inactive	
O=C(Cn1c(SCCOc2ccccc2Cl)nc2ccccc21)N1CCOCC1	inactive	
COc1cccc(OCCNc2cc(N3CCOCC3)ccc2[N+](=O)[O-])c1	active: 17.8 µM	
Cn1cnc2c1c(=O)n(Cc1cccc(Br)c1)c(=O)n2C	inconclusive [activator, single point]	
